Source: the supplement of paper PMC3334620
The full ranking holds about 33,000 sequences; the median of “E-score (-0.5 to 0.5)” is about -0.054, and the highest 2% start at about 0.35. The list shows a part of the results.

molecular target: T1, Stb5 (UniProt P38699); assay: PBM E-score (8-mer binding enrichment) (E-score (-0.5 to 0.5)); higher = stronger / more preferred TF binding; most listed sequences are background and not binding sites; details: protein concentration: 200 nM; construct: GST-full length
T1 sequence: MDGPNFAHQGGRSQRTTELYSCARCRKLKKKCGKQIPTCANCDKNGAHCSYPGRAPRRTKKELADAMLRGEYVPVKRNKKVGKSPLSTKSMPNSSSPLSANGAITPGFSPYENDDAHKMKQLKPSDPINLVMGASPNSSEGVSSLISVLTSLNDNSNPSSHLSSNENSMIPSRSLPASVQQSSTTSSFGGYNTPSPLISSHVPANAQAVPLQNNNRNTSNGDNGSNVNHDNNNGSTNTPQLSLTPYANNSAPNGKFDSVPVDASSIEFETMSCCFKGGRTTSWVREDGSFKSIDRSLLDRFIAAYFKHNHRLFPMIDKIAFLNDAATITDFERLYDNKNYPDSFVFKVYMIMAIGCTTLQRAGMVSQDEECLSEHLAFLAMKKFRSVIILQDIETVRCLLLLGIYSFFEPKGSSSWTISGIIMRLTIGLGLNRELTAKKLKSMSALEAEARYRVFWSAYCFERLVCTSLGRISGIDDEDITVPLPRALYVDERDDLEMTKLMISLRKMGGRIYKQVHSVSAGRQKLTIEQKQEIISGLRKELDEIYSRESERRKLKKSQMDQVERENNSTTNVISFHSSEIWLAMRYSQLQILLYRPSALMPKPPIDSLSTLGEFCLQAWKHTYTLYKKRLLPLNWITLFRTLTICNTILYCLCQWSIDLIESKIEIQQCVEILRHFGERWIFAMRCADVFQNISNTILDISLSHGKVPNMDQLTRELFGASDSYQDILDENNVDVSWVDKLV
Outline: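 Yeast transcription factors carrying a GST tag, as full-length proteins or DNA-binding domains, were produced by PURExpress in vitro transcription/translation. About 100-200 nM protein was applied to universal all-10-mer Agilent arrays, double-stranded by primer extension on fresh or once-stripped slides. Bound protein was detected with fluorescent anti-GST, and scans were normalised with masliner. The Universal PBM Analysis Suite gave each ungapped eight-base word, pooled with its reverse complement, an E-score, a modified Wilcoxon-Mann-Whitney statistic.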

Sequence	PBM E-score
GTCATGCA	-0.157
ACATCGGA	0.192
AGCCTGTG	-0.197
GACTTTAA	0.0727
CACTGCCG	0.189
ATCTCTAC	-0.208
AGGCCGAG	0.136
TGGCTGAA	-0.182
ATGTCGGG	0.306
CAGATCGA	-0.181
AACAACTG	-0.206
GATAAGGA	-0.155
GGAAATGA	-0.0336
AACACTAA	-0.111
CGCTAGCA	-0.0347
AATCACGT	-0.0522
GCACGAAC	-0.119
AGAGCACG	-0.0748
GGAATCAC	0.24
CCATCTAA	-0.192
TTCTAAAA	0.132
GTTAAAAC	0.262
GACCTAGA	0.113
CGCGTTAC	0.118
CATAACGG	0.109

Sequence	PBM E-score
CGTCCTAA	-0.169
TACTCTGA	0.00917
ATAATGCC	0.386
CATTTCCC	0.115
GCGTGCAC	-0.138
ATGTTGGA	0.0314
AAAAAACT	0.0529
ATGTCTAC	-0.103
GATACATC	-0.00646
GGTTTTCA	0.171
GCTTTCCA	0.0377
AGGGGAAC	-0.331
ACTTTAGC	-0.062
AAGATGCC	-0.016
CTCCAAAG	-0.0428
AGGTATGG	-0.118
CATAAACC	0.019
CCTACTCG	-0.0928
CCAACCGA	-0.13
AGGCCCCA	-0.255
GATGCAGA	-0.221
CCTGAACG	0.0457
CTAACGAG	-0.138
ACACACAA	-0.217
CCGGTTCG	0.184

Sequence	PBM E-score
CGAGGACC	-0.0299
AGCTGAGG	-0.229
CGAGCGCC	0.168
ACCCCTAA	-0.0841
ACAAACGT	-0.218
ACAAAGGT	-0.139
ACGAGCGT	-0.163
CGTCTGGA	-0.122
AGCCATGC	-0.206
AACTTAGA	-0.0598
AGATGGGG	-0.217
GGATCCTA	-0.0341
CTCGCGGA	0.252
CCATCCAG	-0.234
GACATTGA	-0.0778
AAATAGCA	0.0649
ATTTCCAA	-0.0723
AGCTTTAT	-0.232
CACTAGAC	-0.127
AGCTCACA	-0.322
ATAGTGCA	-0.126
ACTGCTAA	-0.155
ATTCCACA	-0.0806
AAAGTCTA	-0.0313
GAGAACAA	-0.0871

Sequence	PBM E-score
ACTGACGC	-0.137
CACCTTCC	-0.0751
TGCTGCCA	-0.225
CCCATCAA	-0.159
GTATAGGA	-0.248
AAGTTCCC	0.113
GCCCCAGC	-0.0607
AGGACTTG	-0.344
GCGAAGGA	-0.148
TAAGGTCA	-0.211
AATCGGCG	0.28
CCATAAGG	-0.265
ACGTCGCT	-0.111
CACTGCAA	-0.139
GGTTCCAC	-0.012
CGCCCGGA	0.18
CAGTCTAG	-0.165
AGTTTCCG	0.152
ATTGGGCA	-0.182
ACGGCCCA	0.152
ATCGCTGG	-0.131
CTAGGTCA	-0.117
ACGTAGAA	-0.0911
ATCATCTC	-0.2
TGAATCAA	-0.109

Sequence	PBM E-score
AAACACCA	0.0372
GTTCAACA	-0.174
AGGGCCCA	-0.113
ACCCATCA	-0.234
AACTGGCT	-0.213
AGAGCGGG	0.339
CGAAGGCC	0.118
GATAAGGC	0.106
AAAAGGCG	-0.12
CCTAATCC	0.0083
AATAAATC	0.0317
GAGTTGAA	0.0747
CTTCCCGC	0.129
CATACGAA	-0.126
GTCCCCTA	-0.202
AGTGAACT	-0.0869
CCCCTTCC	-0.056
ATTCACAA	-0.0544
ACTAAAGG	-0.167
GAATGGGC	-0.139
CGCACGCG	0.166
CAGAGCAC	0.0306
GATCTGGC	-0.0212
GGGGGCAC	-0.00892
ATCGGTGG	0.276

Sequence	PBM E-score
ATCCGATG	0.14
AAGCAAGG	-0.0494
AACCTCAG	-0.1
TACCAGGA	-0.0161
TAAAGTCA	-0.115
ATGTAGCA	-0.158
TTAGTGAA	-0.0571
ACTATATG	0.0513
CAAGGCCC	0.153
AGAATCGG	0.327
CAAAAGAC	0.116
GATGCCCA	-0.136
GAGGATGC	-0.0838
TATTGCAA	0.165
CGCAAAAG	0.0208
CGTACCTA	-0.106
CGACTCAC	-0.0748
CATATCCC	0.052
GGAAGCAC	0.115
AGGGGAAT	-0.0223
CTAGAGAA	-0.205
CTTAGAGA	-0.194
ATACGTGG	-0.0504
CGTAGAAG	-0.162
GGTTTGAC	0.171

Sequence	PBM E-score
TAAATCCA	-0.261
ACTACGAC	-0.0432
ATATCTGG	-0.00824
CTTCATTC	0.0146
CTCCGCAG	0.276
GCATATAA	0.0536
CTCGCTCA	-0.0928
CACATTGC	-0.113
ATCGGATA	0.19
CTGCCTTA	-0.107
CGTGATCC	-0.11
CTGGCGCC	0.025
CACCCTAC	-0.249
CGGGGAGA	0.297
CCCTAAAG	-0.0233
CTGAGCTC	-0.0512
CACTGATC	-0.102
CGCCCTTA	0.168
CCTGAAAC	0.0229
CGGCATGA	0.367
AGGGTGAA	-0.0403
CATATTCA	-0.0475
